# Source: paper PMC4336329 (PLoS ONE, 2015)
# Hit rate of the full screen: of about 310,000 compounds, about 14,000 (4.5%) showed an effect of 50% or more. The effect is printed as a negative number. The list shows a part of the results.
# Target: human ether-à-go-go-related gene (hERG) potassium channel (human, UniProt Q12809)
# Experiment: primary screen, population patch clamp on CHO cells stably expressing hERG
# 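Note: peak tail current of the secondary pulse compared with the same well before compound.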
# human ether-à-go-go-related gene (hERG) potassium channel, sequence (Q12809 whole entry, looked up): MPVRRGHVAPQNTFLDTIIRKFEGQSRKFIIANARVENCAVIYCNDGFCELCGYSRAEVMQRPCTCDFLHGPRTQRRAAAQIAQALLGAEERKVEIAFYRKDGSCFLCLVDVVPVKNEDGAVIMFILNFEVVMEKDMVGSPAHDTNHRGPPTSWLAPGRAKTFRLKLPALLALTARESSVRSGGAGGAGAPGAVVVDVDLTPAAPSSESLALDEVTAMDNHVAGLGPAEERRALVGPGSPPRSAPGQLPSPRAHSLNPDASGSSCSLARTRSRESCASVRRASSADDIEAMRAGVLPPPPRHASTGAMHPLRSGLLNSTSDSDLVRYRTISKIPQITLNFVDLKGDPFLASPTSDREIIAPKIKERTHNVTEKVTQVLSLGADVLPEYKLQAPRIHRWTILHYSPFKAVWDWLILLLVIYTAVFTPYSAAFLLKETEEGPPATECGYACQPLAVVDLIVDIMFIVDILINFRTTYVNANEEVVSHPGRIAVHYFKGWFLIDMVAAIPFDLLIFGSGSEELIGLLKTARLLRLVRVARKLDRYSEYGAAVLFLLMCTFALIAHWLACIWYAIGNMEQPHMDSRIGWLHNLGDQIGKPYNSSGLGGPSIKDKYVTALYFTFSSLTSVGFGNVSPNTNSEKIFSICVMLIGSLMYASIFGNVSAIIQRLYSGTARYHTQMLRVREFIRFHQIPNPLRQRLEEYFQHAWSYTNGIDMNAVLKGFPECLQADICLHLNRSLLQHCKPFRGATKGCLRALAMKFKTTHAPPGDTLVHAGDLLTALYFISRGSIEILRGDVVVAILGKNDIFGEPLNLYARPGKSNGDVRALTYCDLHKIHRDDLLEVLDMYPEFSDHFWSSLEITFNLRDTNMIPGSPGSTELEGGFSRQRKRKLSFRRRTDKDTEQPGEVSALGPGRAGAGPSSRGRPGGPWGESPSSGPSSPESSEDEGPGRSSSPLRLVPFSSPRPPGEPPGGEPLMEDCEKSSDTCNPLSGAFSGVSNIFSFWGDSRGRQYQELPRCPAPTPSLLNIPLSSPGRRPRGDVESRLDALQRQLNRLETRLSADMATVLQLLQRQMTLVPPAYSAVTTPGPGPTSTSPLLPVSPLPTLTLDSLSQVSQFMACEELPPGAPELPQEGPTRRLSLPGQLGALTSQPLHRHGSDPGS
row,Compound,"hERG current change (%, negative = inhibition) at 10uM [%]"
1,Cc1ccc(SCCN2CCC(O)CCC2=O)cc1 (stereo not shown),5.87
2,CCOC(=O)C1CCCN(C(=O)c2ccc(Cl)c(S(=O)(=O)N3CCCCC3)c2)C1 (stereo not shown),-13.8
3,O=C(O)CCN(CC(=O)c1ccc(Cl)cc1)S(=O)(=O)c1ccc([N+](=O)[O-])cc1,-13.7
4,O=C(CN(Cc1ccco1)C(=O)CNS(=O)(=O)c1ccc(F)cc1)NCc1ccco1,-8.87
5,Cc1ccc(C)c(Cn2nnc3c(=O)[nH]c(C(=O)Nc4ccc(F)cc4)nc32)c1,28.5
6,O=c1cc(C(F)(F)F)[nH]c2ccccc12,10.9
7,Cc1ccc(S(=O)(=O)NC(=O)Nc2cc(C)no2)cc1,-1.51
8,COc1cc(OC)cc(-c2nc3nc(C)c(CCC(=O)NCC(OC)OC)c(C)n3n2)c1,-16.8
9,CCC(=O)Oc1ccc(C(=O)Nc2cccc(C(=O)NCC(C)C)c2)cc1,-14.5
10,Cc1cc(=O)[nH]c2ccc(S(=O)(=O)NC3CCCCC3)cc12,3.64
11,CN(C(=O)CSc1nnc(-c2ccccc2F)n1N)C1CCCCC1,-5.06
12,CCOc1cc(NC(=S)NCC(C)C)c(OCC)cc1NC(=O)c1cccs1,13.2
13,Cc1ccc(NS(=O)(=O)c2c(C)[nH]c(=O)[nH]c2=O)c(Br)c1,13.7
14,C[C@@H](C(=O)Nc1ccc2ccccc2c1)[C@H]1C[C@]1(C)[C@H](NC(=O)OCc1ccccc1)c1ccccc1,3.4
15,CC1(C)CC(=O)C=C(NCCN2CCN(C(=S)Nc3ccccc3)CC2)C1,-10.2
16,COC(=O)c1ccccc1SC1CC(=O)N(c2cccc(C)c2)C1=O (stereo not shown),23.6
17,Cc1nn2c(N3CCCC3)cc(C(C)C)nc2c1-c1ccccc1,3.92
18,COc1ccc(S(=O)(=O)Nc2ccc3c(c2)CCC3)cc1,16.9
19,Cc1cnc(NC(=O)C2CC=CCC2)s1 (stereo not shown),25.6
20,CCOC(=O)/C(C(C)=O)=C1/OC(=O)c2ccccc21,4.32
21,Cc1c(CCC(=O)N[C@@H](C)C(=O)O)c(=O)oc2c(C)c3oc4c(c3cc12)CCCC4,-2.64
22,Cc1ccc(C(=O)NCC(=O)OCc2nnc(-c3ccccc3)o2)cc1,-31.6

row,Compound,"hERG current change (%, negative = inhibition) at 10uM [%]"
1,C=CCNC(=O)c1c(CSc2ccc(F)cc2)noc1C(=O)NCCC,3.36
2,COCCNC(=O)C(OC(=O)c1cccs1)c1ccc(F)cc1 (stereo not shown),-49.9
3,COc1ccc(S(=O)(=O)/N=C2/C=CC(=O)C(C)=C2C)cc1,-16.8
4,O=C(NCc1ccccc1)C1=C[C@H](c2coc3ccccc3c2=O)C[C@H](OCc2ccc(CO)cc2)O1,-38.1
5,Cc1cc(=O)[nH]c(SCC(=O)Nc2ccc3c(c2)CCC3)c1C#N,-6.4
6,Cc1ccc(NC(=S)N/C(=N/S(=O)(=O)c2ccccc2)c2ccccc2)cc1,10.8
7,Cc1cc(C(=O)Nc2ccc([N+](=O)[O-])cn2)cs1,1.69
8,O=C(/C=C/c1cccs1)N1CCC2(CC1)Oc1ccc(F)cc1C(=O)C21CC(c2ccccc2)=NO1 (stereo not shown),-5.15
9,CN(C(=O)c1nn(C)c2c1CS(=O)(=O)c1ccccc1-2)c1cccc(Cl)c1,-2.41
10,CCCc1nc2c(=O)[nH]c3ccccc3c2o1,0.612
11,COc1cc(C(=O)NC2(C(F)(F)F)NC(=O)N(CCCc3ccccc3)C2=O)cc(OC)c1OC (stereo not shown),-23.8
12,CC(C(=O)c1c[nH]c(C(=O)N=CN(C)C)c1)c1ncc(C(F)(F)F)cc1Cl (stereo not shown),8.52
13,O=C(/C=C\Nc1cccc(F)c1)c1cccs1,11.7
14,CCCOc1ccc(C(CC(=O)O)NC(=O)C(c2ccccc2)c2ccccc2)cc1 (stereo not shown),9.67
15,Cc1noc(C)c1S(=O)(=O)N1CCC(C(=O)Nc2ccccn2)CC1,-14.5
16,CC(C)(C)c1ccc(O)c(N)c1,8.01
17,O=P(C(=Nc1ccc(Cl)cc1)N1CCOCC1)(N1CCOCC1)N1CCOCC1,-17.6
18,CC(=O)Nc1ccc(NC(=O)CSCc2ccccc2Cl)cc1,10.4
19,CC(C)N1CCN(c2ccncc2S(=O)(=O)N2CCOCC2)CC1,20.7
20,CC(C)CC(NS(=O)(=O)c1ccc2c(c1)oc(=O)n2C)C(=O)NC1CCCc2ccccc21 (stereo not shown),7.33
21,OCCN(Cc1ccccc1)Cc1ccccc1F,-24.3
